# Test results from PubChem BioAssay AID2675 (National Center for Advancing Translational Sciences (NCATS), 2010).
# In all, about 280,000 compounds went through this assay and about 100 (0.036%) were called active. The shares of active, inactive and inconclusive entries below differ from those in the screen. Calls follow the shape of the dose curve; as a rule, active = well fitted inhibition curve with a large enough effect in the signal ratio, with a control signal flat (not every such curve was filed as active); inconclusive = small, poorly fitted or top-dose-only effect, or effect the other way, or a change in a side signal; inactive = no such curve, though single readings can be large or run the other way; the % refers to the signal ratio. A potency beside an inconclusive call is a rough fit, not a confirmed value. “Side channel” marks fits to a control or component signal instead of the main read-out.
# Biological target: Muscleblind-like protein 1 (Homo sapiens) (UniProt Q9NR56)
# Experiment: qHTS Assay for Inhibitors of MBNL1-poly(CUG) RNA binding
# Conditions: TR-FRET MBNL1-His/biotin-(CUG)12 binding, 665/545 ratio; series mostly up to 57.5 µM
# Outline: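 TR-FRET between His-tagged MBNL1 and biotin-(CUG)12 RNA, detected with Tb anti-His antibody (0.055 ng/ul) and streptavidin-XL665 (5 nM), 60 min at room temperature. Compounds titrated 92 nM to 58 uM; 665/545 nm ratio normalized to buffer and complex controls.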
# Potency is read from the fitted curve at half-maximal effect; tags tell the direction and shape of the fitted curve or compound fluorescence and quenching.
# UniProt Q9NR56, sequence (Q9NR56 whole entry, looked up): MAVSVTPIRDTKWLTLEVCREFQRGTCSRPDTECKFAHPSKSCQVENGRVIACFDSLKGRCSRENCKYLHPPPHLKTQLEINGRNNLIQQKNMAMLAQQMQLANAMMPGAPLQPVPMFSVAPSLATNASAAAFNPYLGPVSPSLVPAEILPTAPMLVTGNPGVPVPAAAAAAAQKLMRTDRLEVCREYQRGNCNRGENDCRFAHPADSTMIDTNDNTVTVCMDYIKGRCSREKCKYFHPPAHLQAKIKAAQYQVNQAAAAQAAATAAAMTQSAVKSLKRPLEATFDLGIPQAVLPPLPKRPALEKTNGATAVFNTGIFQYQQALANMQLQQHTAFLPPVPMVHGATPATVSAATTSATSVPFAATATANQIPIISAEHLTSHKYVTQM
row,Compound,Potency
1,COc1c(C)cccc1C(=O)Nc1ccc(OCC(=O)N2CCOCC2)cc1C,"inconclusive: 3.16 µM [quencher, full curve]"
2,COc1cc([N+](=O)[O-])ccc1NC(=O)C1C2C=CC(C2)C1C(=O)O (stereo unspecified),"inconclusive: 17.8 µM [quencher, side channel, single point]"
3,COc1ccccc1N1C(=O)c2cccc3c(C(=O)O)ccc(c23)C1=O,"inconclusive: 12.6 µM [quencher, side channel, partial curve]"
4,Cc1ccc(S(=O)(=O)CCC(=O)Nc2cccc([N+](=O)[O-])c2)cc1,"inconclusive: 22.4 µM [quencher, side channel, partial curve]"
5,O=C(N/N=C/c1ccc(-c2ccc([N+](=O)[O-])cc2)o1)C(O)c1ccccc1 (stereo unspecified),"inconclusive: 2.82 µM [quencher, side channel, partial curve]"
6,CCN(CC)Cc1cc2[nH]c3c4ccc(Cl)cc4ncc3c2cc1OC,"inconclusive: 158 µM [inhibitor, partial curve]"
7,O=C(Nc1nnc(SCc2ccc(F)cc2)s1)C1CC(=O)N(Cc2ccccc2)C1 (stereo unspecified),inactive
8,O=C(NCc1ccccc1)C12CN(Cc3ccccc3)CC1C(c1ccc([N+](=O)[O-])cc1)=NO2 (stereo unspecified),"inconclusive: 31.6 µM [quencher, side channel, single point]"
9,CN1CCN(CCCNC(=O)c2ccc3c(Cl)c4c(nc3c2)CCCC4)CC1,"inconclusive: 12.6 µM [quencher, side channel, partial curve]"
10,CCN(CC)c1ccc([N+](=O)[O-])cc1C(=O)N1CCOCC1,"inconclusive: 25.1 µM [quencher, side channel, partial curve]"
11,Cc1ccccc1NC(=O)c1cc(N)ccc1N1CCCCC1,"inconclusive: 39.8 µM [quencher, side channel, single point]"
12,Cc1ccc(/C=N\NC(=O)c2cc([N+](=O)[O-])cc([N+](=O)[O-])c2)o1,"inconclusive: 1.58 µM [quencher, side channel, full curve]"
13,CCC(c1nnnn1Cc1ccc(F)cc1)N(CCCO)Cc1cc2cc3c(cc2[nH]c1=O)OCO3 (stereo unspecified),inactive
14,COC(=O)/C=C1/SC(=NC(=O)c2cccc([N+](=O)[O-])c2)NC1=O,"inconclusive: 11.2 µM [quencher, side channel, partial curve]"
15,O=C(NCc1ccco1)NC(=O)c1csc([N+](=O)[O-])c1,"inconclusive: 1.12 µM [quencher, side channel, full curve, poor fit]"
16,CN1CCC(C2(O)c3ccccc3CSc3sccc32)CC1 (stereo unspecified),inactive
17,O=C(O)c1ccc2c3n(nc2c1)-c1ccc(Cl)cc1CO3,"inconclusive: 14.1 µM [quencher, side channel, partial curve, poor fit]"
18,CCCC(=O)O[C@]1(C(=O)COC(C)=O)CC[C@H]2[C@@H]3C[C@H](F)C4=CC(=O)C=C[C@]4(C)[C@@]3(F)[C@@H](O)C[C@@]21C,inactive
19,O=C(Nc1ccc(N2CCOCC2)cc1)C1CC(=O)N(c2ccccc2)C1 (stereo unspecified),"inconclusive: 14.1 µM [quencher, side channel, partial curve]"
20,COc1cc(C2C(C(=O)OCCC#N)=C(C)NC3=C2S(=O)(=O)c2ccccc23)cc(OC)c1OC (stereo unspecified),"inconclusive: 20 µM [quencher, side channel, single point]"
21,Cn1nnnc1SCC1=C(C(=O)O)N2C(=O)[C@@H](NC(=O)[C@H](O)c3ccccc3)[C@H]2SC1,"inconclusive: 0.355 µM [inhibitor, full curve, poor fit]"

row,Compound,Potency
1,O=C(O)C/C(=C\c1cc(Br)cs1)c1nc2ccccc2o1,"inconclusive: 35.5 µM [quencher, single point]"
2,Cc1ccc(N=C2NC(=O)c3cccc([N+](=O)[O-])c32)cc1,"inconclusive: 1.78 µM [quencher, side channel, full curve]"
3,CCc1ccc(S(=O)(=O)Nc2c(C)nn(C)c2C)cc1,"inconclusive: 8.91 µM [quencher, side channel, single point]"
4,CC(C)c1ccc(CN2CCC(Oc3ccc(C(=O)N4CCCC4)cc3)CC2)cc1,inactive
5,COC(=O)C1C(=O)c2c(C)noc2CC1(C)C (stereo unspecified),"inconclusive: 20 µM [inhibitor, single point]"
6,Oc1ccc(/C=N/Nc2nc(-c3cccnc3)nc3ccccc23)c(O)c1,"inconclusive: 20 µM [quencher, side channel, single point]"
7,Cc1ccccc1NC(=O)c1sc(Cl)nc1C,inactive
8,CC(=O)N1CCc2c(sc(NC(=O)c3ccc([N+](=O)[O-])o3)c2C#N)C1,"inconclusive: 5.01 µM [quencher, side channel, partial curve]"
9,OCCC1CN(Cc2ccc3nsnc3c2)CCN1CCc1ccccc1 (stereo unspecified),"inconclusive: 14.1 µM [quencher, side channel, partial curve]"
10,N#CCCc1cccc(CCC#N)c1,"inconclusive: 35.5 µM [fluorescent, side channel, partial curve]"
11,COc1ccc(C(CNC(=O)COc2cc(C)c(Cl)c(C)c2)N2CCCCC2)cc1 (stereo unspecified),inactive
12,CCC(=O)Nc1cccc(C2=NOC3(C2)C[C@H](C(N)=O)N(C(=O)Cc2ccc([N+](=O)[O-])cc2)C3)c1 (stereo partly specified),"inconclusive: 28.2 µM [quencher, side channel, single point]"
13,CCNS(=O)(=O)c1ccc(Br)c(OC)c1,inactive
14,CNC(=S)Nc1ccc2nc(C)c(C)nc2c1,"inconclusive: 14.1 µM [quencher, side channel, partial curve]"
15,O=C(Nc1ccccc1)NN(C(=O)CCl)c1ccccc1,"inconclusive: 79.4 µM [inhibitor, single point]"
16,Cc1sc2ncnc(Sc3ccccc3C(=O)O)c2c1C,"inconclusive: 14.1 µM [fluorescent, side channel, partial curve]"
17,CC(=O)N1CCN(C(=O)c2ccco2)CC1,inactive
18,NC(=O)NNC1=Nc2cccc3cccc1c23,inactive
19,O=C(NCc1ccco1)c1cc2ccc(O)cc2oc1=O,"inconclusive: 25.1 µM [quencher, side channel, partial curve]"
20,O=[N+]([O-])c1cccc(-c2c[n+]3c(n2-c2ccccc2)SCC3)c1,"inconclusive: 15.8 µM [quencher, side channel, partial curve]"
21,Cc1cc2oc(=O)cc(Cn3ccnc3)c2cc1O,"inconclusive: 44.7 µM [quencher, side channel, partial curve]"

row,Compound,Potency
1,O=[N+]([O-])c1ccccc1N/N=C\c1ccccc1Cl,"inconclusive: 31.6 µM [quencher, side channel, single point]"
2,O=C(O)c1c(Cl)c(Cl)c(Cl)c(Cl)c1C(=O)N1CCCCCC1,"inconclusive: 79.4 µM [inhibitor, single point]"
3,CC1CCCN(S(=O)(=O)c2cccc([N+](=O)[O-])c2)C1 (stereo unspecified),"inconclusive: 28.2 µM [quencher, side channel, partial curve]"
4,Cc1[nH]n(C(N)=S)c(=O)c1N=Nc1ccc2ccccc2c1,"inconclusive: 22.4 µM [quencher, side channel, partial curve]"
5,CN(C)c1ccc(/C=C/C(=O)c2cccnc2)cc1,"inconclusive: 14.1 µM [quencher, side channel, partial curve]"
6,CCN1CCN(Cc2c3ccccc3cc3ccccc23)CC1,"inconclusive: 31.6 µM [quencher, side channel, single point]"
7,CNCCCC1Sc2ccccc2Oc2ccccc21 (stereo unspecified),"inconclusive: 0.562 µM [quencher, side channel, single point]"
8,NC(=O)c1nsc(C(=O)N(CC(=O)NCc2ccco2)c2ccccc2F)c1N,"inconclusive: 35.5 µM [quencher, side channel, single point]"
9,O=C(NCCCN1CCOCC1)c1ccc(Sc2ccccc2Cl)c([N+](=O)[O-])c1,"inconclusive: 3.55 µM [quencher, full curve, poor fit]"
10,O=C(O)c1ccc(N2C(=O)/C(=C/C=C/c3ccccc3)SC2=S)cc1,inactive
11,C/C(=N\NC(=O)C(O)c1ccccc1)c1ccc(Cl)s1 (stereo unspecified),"inconclusive: 15.8 µM [quencher, side channel, partial curve]"
12,O=C(c1cccnc1)C1Cc2ccccc2C1=O (stereo unspecified),"inconclusive: 25.1 µM [quencher, side channel, partial curve]"
13,CC(=O)c1cccc(NC(=S)NC(=O)c2ccc(Br)cc2)c1,"inconclusive: 0.158 µM [quencher, side channel, full curve, poor fit]"
14,CCOC(=O)CSc1nc(C)[nH]c1[N+](=O)[O-],"inconclusive: 25.1 µM [quencher, side channel, single point]"
15,CCOc1ccccc1NC(=O)c1ccc2c(c1)C(=O)N(CC(C)C)C2=O,inactive
16,Cc1c(CN(C)C(=O)/C=C/c2ccc([N+](=O)[O-])cc2)cnn1C,"inconclusive: 2.24 µM [quencher, side channel, single point]"
17,CCOc1ccc(CNc2cccc(SC)c2)cc1,inactive
18,O=Cc1ccc(-c2ccc(F)cc2)o1,"inconclusive: 20 µM [quencher, side channel, partial curve]"
19,COc1cccc(C(=O)Nc2ccc3c(c2)C(=O)NC3=O)c1,"inconclusive: 8.91 µM [quencher, side channel, full curve, poor fit]"
